# From the supplement of paper PMC8728848
# Some of the results follow.
# Assays:
# Test in all cases: glycan array binding signal (z-score within array); higher = stronger binding
# Settings in all cases: glycan notation: IUPAC condensed, linker removed
# [1] = target: Neu5Ac(a2-6)Gal(b1-4)GlcNAc(b1-2)Man(a1-3)[Neu5Ac(a2-6)Gal(b1-4)GlcNAc(b1-2)Man(a1-6)]Man(b1-4)GlcNAc(b1-4)GlcNAc
# Summary of the method: (§1)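 From the Consortium for Functional Glycomics database, 3228 arrays were curated, keeping only those whose protein sequence was available. Binding is given as a within-array Z-score averaged across arrays sharing a protein sequence and across linkers. Negative Z-scores can be read as non-binding.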
# [2] = target: Neu5Ac(a2-6)Gal(b1-4)GlcNAc(b1-2)Man(a1-6)Man(b1-4)GlcNAc(b1-4)GlcNAc
# Summary of the method: as §1
# [3] = target: Neu5Ac(a2-6)Gal(b1-4)GlcNAc(b1-2)Man(a1-6)[Gal(b1-4)GlcNAc(b1-2)Man(a1-3)]Man(b1-4)GlcNAc(b1-4)GlcNAc
# Summary of the method: as §1
# [4] = target: Neu5Ac(a2-6)Gal(b1-4)GlcNAc(b1-2)Man(a1-6)[GlcNAc(b1-2)Man(a1-3)]Man(b1-4)GlcNAc(b1-4)GlcNAc
# Summary of the method: as §1
# [5] = target: Neu5Ac(a2-6)Gal(b1-4)GlcNAc(b1-2)Man(a1-6)[Man(a1-3)]Man(b1-4)GlcNAc(b1-4)GlcNAc
# Summary of the method: as §1
# [6] = target: Neu5Ac(a2-6)Gal(b1-4)GlcNAc(b1-3)Gal(b1-3)GlcNAc
# Summary of the method: as §1
# [7] = target: Neu5Ac(a2-6)Gal(b1-4)GlcNAc(b1-3)Gal(b1-4)GlcNAc
# Summary of the method: as §1
# [8] = target: Neu5Ac(a2-6)Gal(b1-4)GlcNAc(b1-3)Gal(b1-4)GlcNAc(b1-3)Gal(b1-4)GlcNAc
# Summary of the method: as §1
# [9] = target: Neu5Ac(a2-6)Gal(b1-4)GlcNAc(b1-3)Gal(b1-4)[Fuc(a1-3)]GlcNAc(b1-3)Gal(b1-4)[Fuc(a1-3)]GlcNAc
# Summary of the method: as §1
# [10] = target: Neu5Ac(a2-6)Gal(b1-4)GlcNAc(b1-3)GalNAc
# Summary of the method: as §1
# [11] = target: Neu5Ac(a2-6)Gal(b1-4)GlcNAc6S
# Summary of the method: as §1
# [12] = target: Neu5Ac(a2-6)GalNAc
# Summary of the method: as §1
# [13] = target: Neu5Ac(a2-6)GalNAc(b1-4)GlcNAc
# Summary of the method: as §1
# [14] = target: Neu5Ac(a2-6)GlcNAc(b1-4)GlcNAc
# Summary of the method: as §1
# [15] = target: Neu5Ac(a2-6)GlcNAc(b1-4)GlcNAc(b1-4)GlcNAc
# Summary of the method: as §1
# [16] = target: Neu5Ac(a2-8)Neu5Ac
# Summary of the method: as §1
# [17] = target: Neu5Ac(a2-8)Neu5Ac(a2-3)Gal(b1-4)Glc
# Summary of the method: as §1
# [18] = target: Neu5Ac(a2-8)Neu5Ac(a2-3)[GalNAc(b1-4)]Gal(b1-4)Glc
# Summary of the method: as §1
# [19] = target: Neu5Ac(a2-8)Neu5Ac(a2-8)Neu5Ac
# Summary of the method: as §1
# [20] = target: Neu5Ac(a2-8)Neu5Ac(a2-8)Neu5Ac(a2-3)Gal(b1-4)Glc
# Summary of the method: as §1
# [21] = target: Neu5Ac(a2-8)Neu5Ac(a2-8)Neu5Ac(a2-3)[GalNAc(b1-4)]Gal(b1-4)Glc
# Summary of the method: as §1
# [22] = target: Neu5Ac(a2-8)Neu5Ac(a2-8)Neu5Ac(a2-8)Neu5Ac(a2-3)[GalNAc(b1-4)]Gal(b1-4)Glc
# Summary of the method: as §1
# [23] = target: Neu5Ac(b2-6)Gal(b1-4)GlcNAc
# Summary of the method: as §1
# [24] = target: Neu5Ac(b2-6)GalNAc
# Summary of the method: as §1
# [25] = target: Neu5Ac9Ac(a2-3)Gal(b1-3)GlcNAc
# Summary of the method: as §1
# [26] = target: Neu5Ac9Ac(a2-3)Gal(b1-4)GlcNAc
# Summary of the method: as §1
# [27] = target: Neu5Ac9Ac(a2-6)Gal(b1-4)GlcNAc
# Summary of the method: as §1
# [28] = target: Neu5Gc(a2-3)Gal(b1-3)GlcNAc
# Summary of the method: as §1
# [29] = target: Neu5Gc(a2-3)Gal(b1-3)[Fuc(a1-4)]GlcNAc
# Summary of the method: as §1
# [30] = target: Neu5Gc(a2-3)Gal(b1-4)Glc
# Summary of the method: as §1
# [31] = target: Neu5Gc(a2-3)Gal(b1-4)GlcNAc
# Summary of the method: as §1
# [32] = target: Neu5Gc(a2-3)Gal(b1-4)[Fuc(a1-3)]GlcNAc
# Summary of the method: as §1
# [33] = target: Neu5Gc(a2-6)Gal(b1-4)GlcNAc
# Summary of the method: as §1
# [34] = target: Neu5Gc(a2-6)GalNAc
# Summary of the method: as §1
# [35] = target: Neu5Gc(b2-6)Gal(b1-4)GlcNAc
# Summary of the method: as §1
binder,measurement,setting,value
GH98CBM51-1 (Streptococcus pneumoniae) (protein) MTYLSDMDWSSATHGDIDKTKTVQKDAPFTTGNKGEHTKISLLTSDDKVKYFDKGIGTVADSPSVISYDISGQGFEKFETYIGIDQSANSSRSDHAVVDRIEIEIDGKVVYSSSVTNPEGFRYNTQAQFISVTIPQNAKKISLKSFAGEHTWGDEVVFADAKLIKTVST,glycan array binding signal (z-score),[1],-0.176
same,glycan array binding signal (z-score),[2],-0.187
same,glycan array binding signal (z-score),[3],-0.194
same,glycan array binding signal (z-score),[4],-0.188
same,glycan array binding signal (z-score),[5],-0.188
same,glycan array binding signal (z-score),[6],-0.192
same,glycan array binding signal (z-score),[7],-0.142
same,glycan array binding signal (z-score),[8],-0.189
same,glycan array binding signal (z-score),[9],-0.186
same,glycan array binding signal (z-score),[10],-0.191
same,glycan array binding signal (z-score),[11],-0.192
same,glycan array binding signal (z-score),[12],-0.136
same,glycan array binding signal (z-score),[13],-0.188
same,glycan array binding signal (z-score),[14],-0.184
same,glycan array binding signal (z-score),[15],-0.193
same,glycan array binding signal (z-score),[16],-0.182
same,glycan array binding signal (z-score),[17],-0.187
same,glycan array binding signal (z-score),[18],-0.192
same,glycan array binding signal (z-score),[19],-0.191
same,glycan array binding signal (z-score),[20],-0.187
same,glycan array binding signal (z-score),[21],-0.179
same,glycan array binding signal (z-score),[22],-0.184
same,glycan array binding signal (z-score),[23],-0.181
same,glycan array binding signal (z-score),[24],-0.193
same,glycan array binding signal (z-score),[25],-0.187
same,glycan array binding signal (z-score),[26],-0.19
same,glycan array binding signal (z-score),[27],-0.196
same,glycan array binding signal (z-score),[28],-0.187
same,glycan array binding signal (z-score),[29],-0.189
same,glycan array binding signal (z-score),[30],-0.19
same,glycan array binding signal (z-score),[31],-0.185
same,glycan array binding signal (z-score),[32],-0.182
same,glycan array binding signal (z-score),[33],-0.188
same,glycan array binding signal (z-score),[34],-0.191
same,glycan array binding signal (z-score),[35],-0.184
